Assay results reported in article PMC12040169 (PLOS Biology, 2025).
This is one part of the list.

What follows are compounds tested on T1, C. trachomatis L2/434/Bu expressing GFP (CTL2-GFP). Details: total inclusion area; 28.5 h, 10 µM; inhibitor.
T1 construct: L2/434/Bu GFP intracellular growth in HeLa cells
Parameters: species or system HeLa; C. trachomatis total inclusion area by high-content imaging, normalised to DMSO
In short: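 Post-fluorescence-read fixation, DNA staining with Hoechst and high-content imaging; GFP inclusion area and number per well, and nuclei counts, used as proxies for bacterial growth and host viability.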
With c1ccc2c(c1)[nH]c1nc(SCCN3CCCCC3)nnc12 [CBK263249] the “% of control remaining” value was 87.7134. In the case of Cc1ccc(S(=O)(=O)NC(C)(C)CSc2ccccc2)cc1 [CBK268354], the “% of control remaining” value is reported as 102.162. For COc1ccc(OC)c(Nc2nc(NCC3CCCO3)c3ccccc3n2)c1 (stereo not drawn) [CBK268403C], the “% of control remaining” value was 33.991. With Cc1cccn2c(=O)c(/C=C3\SC(=S)N(Cc4ccccc4)C3=O)c(NCCCn3ccnc3)nc12 [CBK263833] the “% of control remaining” value was 101.707. COc1ccc2sc(N(Cc3cccnc3)C(=O)CCc3ccccc3)nc2c1 [CBK294423] was tested, and the “% of control remaining” value was 97.9452. C#CCN1C(=O)C2(OCCO2)c2cccc(C)c21 [CBK019069] was tested, and the “% of control remaining” value was 94.7008. In the case of COc1cc(NS(=O)(=O)c2ccc(NC(=O)c3c(C)noc3C)cc2)nc(OC)n1 [CBK268151], the “% of control remaining” value is reported as 100.698. CCN(Cc1ccccc1)[C@@H](CO)Cc1ccc(OC)cc1 [CBK073856T] was tested, and the “% of control remaining” value was 114.822. CCNC(=O)NC[C@H]1C[C@@H]2CCN1C[C@@H]2c1cc(C2CCCC2)nn1C [CBK288743] was tested, and the “% of control remaining” value was 69.5001. With CC(C)CCNC(=O)N1CCNC(=O)C1 [CBK155874] the “% of control remaining” value was 96.9484. In the case of O=C(CSc1cnn[nH]1)Nc1cccc(C(F)(F)F)c1 [CBK269888], the “% of control remaining” value is reported as 70.8001. With CCOc1ccc(N2C(=O)CC(N3CCN(c4ccc(C(=O)c5ccncc5)cc4)CC3)C2=O)cc1 (stereo not drawn) [CBK269124] the “% of control remaining” value was 68.7634. For O=C(NCC(O)c1ccccc1)Nc1ccccc1 (stereo not drawn) [CBK057227], the “% of control remaining” value was 90.5407. With Cc1nn(C)c(C)c1CN(C)C(=O)c1cc(-c2ccc(F)cc2)on1 [CBK281587] the “% of control remaining” value was 94.0067. COc1nc2ccccc2nc1CCC(=O)NCc1ccco1 [CBK269866] was tested, and the “% of control remaining” value was 53.6536. CCCC(=O)Nc1ccc(-c2csc(N3CCN(C)CC3)n2)cc1 [CBK305025] was tested, and the “% of control remaining” value was 34.6338. COc1ccc(-c2ccc(C(=O)NCCN3CCOCC3)c(N(C)C(C)=O)n2)cc1 [CBK076545] was tested, and the “% of control remaining” value was 87.4108. In the case of COc1ccccc1-c1cnc(N)c(N2CCC(C(=O)O)CC2)n1 [CBK064082], the “% of control remaining” value is reported as 122.995. In the case of Cc1c(F)cccc1CNCC1CCN(C(=O)OC(C)(C)C)CC1 [CBK056717], the “% of control remaining” value is reported as 109.616. For Cc1nc2cc(OCc3nc(C(=O)NCC4CCOC4)co3)ccc2s1 (stereo not drawn) [CBK307508], the “% of control remaining” value was 54.9743. For COc1cc(CCN2C(=O)c3cccc4cccc(c34)C2=O)c(S(=O)(=O)N2CCCC2)cc1OC [CBK264947], the “% of control remaining” value was 88.258. COc1ccc(Cn2c(-c3ccc(OC)c(O)c3)nc3ccccc32)cc1O [CBK263370] was tested, and the “% of control remaining” value was 85.8518. NS(=O)(=O)c1ccc(CCNC(=O)/C=C/c2ccc([N+](=O)[O-])cc2)cc1 [CBK265683] was tested, and the “% of control remaining” value was 79.9747. In the case of CNS(=O)(=O)c1cc(C(=O)O)ccc1OC [CBK270179], the “% of control remaining” value is reported as 88.1301. In the case of Cc1cc(Cl)cc(Cl)c1S(=O)(=O)Nc1cccc(C(=O)O)c1 [CBK155682], the “% of control remaining” value is reported as 126.921. In the case of Cc1cc(=O)n2c3c(cc(S(=O)(=O)NC4CC4)cc13)CCC2 [CBK307572], the “% of control remaining” value is reported as 87.5256. For NS(=O)(=O)c1ccc(C(=O)N2CCC3(CCN(C(=O)c4ccoc4)C3)C2)cc1 (stereo not drawn) [CBK131736], the “% of control remaining” value was 66.8779. In the case of Cc1ccc(CNC(=O)CSc2nc(C)c(C)c(=O)[nH]2)cc1 [CBK287735], the “% of control remaining” value is reported as 130.457. For CCc1ccc(OC)c(S(=O)(=O)NC2CC(C)(C)NC(C)(C)C2)c1 [CBK270098], the “% of control remaining” value was 88.7039. COc1ccc(C(=O)c2oc3cc(NC(=O)c4cccnc4)ccc3c2C)cc1 [CBK287652] was tested, and the “% of control remaining” value was 90.0503. COc1cc(Cl)c(C)cc1NC(=O)C1CC=CCC1C(=O)O (stereo not drawn) [CBK296667] was tested, and the “% of control remaining” value was 65.1938. In the case of Cc1cccn2cc(CCNC(=O)CN3Cc4ccccc4C3)nc12 [CBK305166], the “% of control remaining” value is reported as 62.446. In the case of O=C(Nc1cccc(NS(=O)(=O)c2ccc(Cl)cc2)c1)c1ccco1 [CBK265956], the “% of control remaining” value is reported as 94.189. In the case of Cc1ccc2oc(-c3ccc(O)cc3)nc2c1 [CBK093878], the “% of control remaining” value is reported as 70.0132. For Cc1csc2c(C3CCN(C(=O)c4cscn4)CC3)nc(C)n12 [CBK285246], the “% of control remaining” value was 70.6311. For OC1(c2cccnc2F)CCN(Cc2ccc(F)c(F)c2)CC1 [CBK284370], the “% of control remaining” value was 90.5164. COc1ccccc1CCC(=O)Nc1cnn(C)c1 [CBK287995] was tested, and the “% of control remaining” value was 81.9498. O=C(O)c1cccc(Sc2cccc(C(F)(F)F)n2)c1 [CBK093592] was tested, and the “% of control remaining” value was 114.077. For NS(=O)(=O)c1ccc(CCNC(=O)c2ccc(C#CC3(O)CCCCC3)cc2)cc1 [CBK263104], the “% of control remaining” value was 85.982. CCOc1ccc(N2C(=O)CC(N3CCN(CCc4ccccn4)CC3)C2=O)cc1 (stereo not drawn) [CBK270149] was tested, and the “% of control remaining” value was 91.3309. CCCC(=O)c1ccc(S(=O)(=O)N2CCN(Cc3cccc(F)c3C)CC2)cc1 [CBK063152] was tested, and the “% of control remaining” value was 30.5934. N#Cc1c(C(F)(F)F)cc(-c2ccco2)nc1SCc1ccccn1 [CBK267450] was tested, and the “% of control remaining” value was 108.417. For O=c1[nH]c(CN2CCCCCCC2)nc2ccccc12 [CBK283205], the “% of control remaining” value was 88.3675. For Cn1c(C(=O)NCc2ccccc2)cc2ccccc21 [CBK200195], the “% of control remaining” value was 75.4275. CC1C2CCCN2CCN1Cc1cccc(Oc2ccccc2)c1 (stereo not drawn) [CBK262880] was tested, and the “% of control remaining” value was 104.188. With O=C(c1cccs1)[C@H]1CCCN(C(=O)c2cc(C3CC3)n[nH]2)C1 [CBK282411] the “% of control remaining” value was 116.285. In the case of O=[N+]([O-])c1ccc(/C=N/C23CN4CN(CN(C4)C2)C3)s1 [CBK261752], the “% of control remaining” value is reported as 85.982. CC(C)(C)OC(=O)N1CCC[C@@H](C(=O)c2cccnc2)C1 [CBK284284] was tested, and the “% of control remaining” value was 63.2349. For CCOC(=O)Cc1nc2cc([N+](=O)[O-])ccc2oc1=O [CBK015603], the “% of control remaining” value was 95.408. Fc1ccc2c3c([nH]c2c1)C1(CCN(CCCOCc2ccccc2)CC1)NCC3 [CBK039858] was tested, and the “% of control remaining” value was 102.031. With Cc1ccc(S(=O)(=O)N2CCCN(CC(O)c3ccccc3)CC2)cc1 (stereo not drawn) [CBK297911] the “% of control remaining” value was 81.9337.
